{"sequences": {"note": "Protein sequences, listed by entry. Tags and fused reporters are not part of them. Lines headed by an entry give the natural chain unless they say otherwise; changes in a name come on top. Residues count along the entry.", "UniProt P31750": "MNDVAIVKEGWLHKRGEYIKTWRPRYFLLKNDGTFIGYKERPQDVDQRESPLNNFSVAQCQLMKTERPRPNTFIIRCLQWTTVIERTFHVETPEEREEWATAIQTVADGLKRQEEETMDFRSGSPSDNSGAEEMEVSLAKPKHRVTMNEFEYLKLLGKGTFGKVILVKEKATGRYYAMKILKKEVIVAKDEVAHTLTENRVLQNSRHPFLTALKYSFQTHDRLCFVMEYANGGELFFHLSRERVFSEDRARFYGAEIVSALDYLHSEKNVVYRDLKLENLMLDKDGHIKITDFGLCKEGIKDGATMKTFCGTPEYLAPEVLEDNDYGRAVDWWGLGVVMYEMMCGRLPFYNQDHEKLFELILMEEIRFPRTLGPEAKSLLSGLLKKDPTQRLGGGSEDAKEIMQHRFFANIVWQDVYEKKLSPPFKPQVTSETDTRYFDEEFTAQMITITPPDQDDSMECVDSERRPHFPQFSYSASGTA", "UniProt P31749": "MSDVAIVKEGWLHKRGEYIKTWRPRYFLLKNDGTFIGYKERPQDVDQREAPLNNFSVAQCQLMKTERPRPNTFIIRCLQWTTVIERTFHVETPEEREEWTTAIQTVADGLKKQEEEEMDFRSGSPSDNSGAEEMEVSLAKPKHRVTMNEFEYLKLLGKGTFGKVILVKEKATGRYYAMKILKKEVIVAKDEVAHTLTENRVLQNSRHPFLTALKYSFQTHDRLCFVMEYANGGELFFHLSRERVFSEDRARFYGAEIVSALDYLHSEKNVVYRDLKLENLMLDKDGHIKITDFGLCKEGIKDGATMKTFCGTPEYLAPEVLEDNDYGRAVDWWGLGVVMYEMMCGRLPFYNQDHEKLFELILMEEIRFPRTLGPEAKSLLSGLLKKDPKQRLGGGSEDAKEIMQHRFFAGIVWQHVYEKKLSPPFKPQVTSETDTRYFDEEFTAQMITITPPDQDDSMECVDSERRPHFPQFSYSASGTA", "Akt1 fragment containing amino acids 4-111": "residues 4-111 of P31749", "Akt1 fragment containing amino acids 150-408 (myc-Akt1-PK)": "residues 150-408 of P31749", "Akt1 fragment containing amino acids 409-479 (myc-Akt1-AGC)": "residues 409-479 of P31749", "UniProt P54646": "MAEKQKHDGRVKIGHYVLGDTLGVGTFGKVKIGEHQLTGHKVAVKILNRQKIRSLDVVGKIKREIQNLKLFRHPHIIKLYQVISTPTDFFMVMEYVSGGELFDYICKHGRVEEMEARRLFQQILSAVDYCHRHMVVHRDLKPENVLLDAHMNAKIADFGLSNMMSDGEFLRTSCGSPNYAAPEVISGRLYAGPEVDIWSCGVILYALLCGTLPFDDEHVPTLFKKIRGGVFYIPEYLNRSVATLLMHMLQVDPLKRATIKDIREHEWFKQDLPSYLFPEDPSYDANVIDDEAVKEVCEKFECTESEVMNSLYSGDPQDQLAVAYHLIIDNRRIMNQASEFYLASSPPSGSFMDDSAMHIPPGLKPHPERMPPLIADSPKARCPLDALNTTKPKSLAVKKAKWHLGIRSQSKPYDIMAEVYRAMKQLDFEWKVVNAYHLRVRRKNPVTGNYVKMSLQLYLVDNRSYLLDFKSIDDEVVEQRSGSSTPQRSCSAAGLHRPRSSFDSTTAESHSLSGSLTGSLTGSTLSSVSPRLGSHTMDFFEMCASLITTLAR", "UniProt O54950": "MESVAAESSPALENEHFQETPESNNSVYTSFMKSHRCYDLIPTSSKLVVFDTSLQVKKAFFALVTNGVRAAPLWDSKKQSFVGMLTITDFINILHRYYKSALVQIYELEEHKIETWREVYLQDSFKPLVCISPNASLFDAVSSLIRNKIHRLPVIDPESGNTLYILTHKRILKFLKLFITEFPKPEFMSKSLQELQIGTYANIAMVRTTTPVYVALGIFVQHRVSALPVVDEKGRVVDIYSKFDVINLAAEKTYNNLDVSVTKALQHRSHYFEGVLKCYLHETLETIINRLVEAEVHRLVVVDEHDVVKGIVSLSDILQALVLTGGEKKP", "UniProt P54619": "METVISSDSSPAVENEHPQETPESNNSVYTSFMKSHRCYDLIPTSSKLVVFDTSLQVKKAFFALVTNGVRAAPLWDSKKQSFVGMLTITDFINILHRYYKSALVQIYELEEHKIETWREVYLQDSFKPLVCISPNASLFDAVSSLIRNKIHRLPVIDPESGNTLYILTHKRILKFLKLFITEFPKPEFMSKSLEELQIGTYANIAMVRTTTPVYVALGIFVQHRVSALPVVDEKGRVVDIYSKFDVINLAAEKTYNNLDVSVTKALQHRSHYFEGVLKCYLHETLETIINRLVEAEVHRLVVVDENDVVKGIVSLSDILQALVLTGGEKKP"}, "source": "paper PMC5013012", "key": {"[1]": {"target": "phosphorylated Akt1 (p-Akt1, Ser473), endogenous in mouse cardiomyocytes (mouse (endogenous in adult mouse cardiomyocytes)) (UniProt P31750)", "assay": "co-IP; nuclear extracts and cytosol preparations of cultured mouse cardiomyocytes (control, PE, 11,12-EET pretreatment); immunoprecipitation with a p-Akt1-specific antibody or control IgG, blots for AMPK subunits, p-AMPKα2 and AMPKα2"}, "GST-Akt1": {"target": "GST-Akt1 (UniProt P31749)", "assay": "pull-down; HEK293T cells transfected with GST-Akt1, pretreated with 11,12-EET, PE for 24 h; cytosolic and nuclear proteins purified with glutathione Sepharose beads, blots for Akt1 and AMPKγ1"}, "[2]": {"target": "Akt1 fragment containing amino acids 150-408 (myc-Akt1-PK) (UniProt P31749)", "assay": "co-IP; myc-tagged Akt1 (full length or fragments) with Flag-tagged AMPKα2, AMPKβ2 or AMPKγ1 in HEK293T cells; called 'in vitro binding assay' in the text"}, "[3]": {"target": "Akt1 fragment containing amino acids 4-111 (UniProt P31749)", "assay": "co-IP; myc-tagged Akt1 (full length or fragments) with Flag-tagged AMPKα2, AMPKβ2 or AMPKγ1 in HEK293T cells; called 'in vitro binding assay' in the text"}, "[4]": {"target": "Akt1 fragment containing amino acids 409-479 (myc-Akt1-AGC) (UniProt P31749)", "assay": "co-IP; myc-tagged Akt1 (full length or fragments) with Flag-tagged AMPKα2, AMPKβ2 or AMPKγ1 in HEK293T cells; called 'in vitro binding assay' in the text"}, "[5]": {"target": "Full-length Akt1 tagged with myc (myc-Akt1) (UniProt P31749)", "assay": "co-IP; myc-tagged Akt1 (full length or fragments) with Flag-tagged AMPKα2, AMPKβ2 or AMPKγ1 in HEK293T cells; called 'in vitro binding assay' in the text"}, "[6]": {"target": "myc-conjugated AMPKα2-T172A (UniProt P54646)", "assay": "co-IP; HEK293T cells transfected with myc-AMPKα2-WT or myc-AMPKα2-T172A, with 11,12-EET and PE; nuclear lysates immunoprecipitated with a myc-specific antibody or control IgG, blots for p-Akt1, p-AMPKα2 and AMPKα2"}, "myc-conjugated AMPKα2-WT": {"target": "myc-conjugated AMPKα2-WT (UniProt P54646)", "assay": "co-IP; HEK293T cells transfected with myc-AMPKα2-WT or myc-AMPKα2-T172A, with 11,12-EET and PE; nuclear lysates immunoprecipitated with a myc-specific antibody or control IgG, blots for p-Akt1, p-AMPKα2 and AMPKα2"}}, "note": "No constants are given. Whether binding was seen depends on the method and setting. Binding seen in cells or lysates may run through a third protein. Some entries that bind do so weakly or less than the wild type."}
{"substance": "AMPKγ1 subunit, endogenous in mouse cardiomyocytes (from UniProt O54950 1-330)", "values": [{"measurement": "binding", "setting": "[1]", "value": "binds"}]}
{"substance": "AMPKγ1, endogenous in HEK293T cells (from UniProt P54619 1-331)", "values": [{"measurement": "binding", "setting": "GST-Akt1", "value": "binds"}]}
{"substance": "Flag-tagged AMPKγ1 (from UniProt P54619 1-331)", "values": [{"measurement": "binding", "setting": "[2]", "value": "binds"}, {"measurement": "binding", "setting": "[3]", "value": "no binding"}, {"measurement": "binding", "setting": "[4]", "value": "no binding"}, {"measurement": "binding", "setting": "[5]", "value": "binds"}]}
{"substance": "phosphorylated Akt1 (p-Akt1), endogenous in HEK293T cells (from UniProt P31749 1-480)", "values": [{"measurement": "binding", "setting": "[6]", "value": "no binding"}, {"measurement": "binding", "setting": "myc-conjugated AMPKα2-WT", "value": "no binding"}]}
